# Test results: PubChem BioAssay AID1159614 (National Center for Advancing Translational Sciences (NCATS), 2016)
# Screen size: about 45,000 compounds; about 65 (0.1%) were called active. The call rests on the fitted dose curve; in most records, active means well fitted activation curve with a large enough effect; inconclusive means small, poorly fitted or top-dose-only effect; inactive means no such curve, though single readings can be large or run the other way. This is one part of the list.
# Target: Galactocerebrosidase (Homo sapiens) (UniProt P54803)
# UniProt P54803, sequence (P54803 whole entry, looked up): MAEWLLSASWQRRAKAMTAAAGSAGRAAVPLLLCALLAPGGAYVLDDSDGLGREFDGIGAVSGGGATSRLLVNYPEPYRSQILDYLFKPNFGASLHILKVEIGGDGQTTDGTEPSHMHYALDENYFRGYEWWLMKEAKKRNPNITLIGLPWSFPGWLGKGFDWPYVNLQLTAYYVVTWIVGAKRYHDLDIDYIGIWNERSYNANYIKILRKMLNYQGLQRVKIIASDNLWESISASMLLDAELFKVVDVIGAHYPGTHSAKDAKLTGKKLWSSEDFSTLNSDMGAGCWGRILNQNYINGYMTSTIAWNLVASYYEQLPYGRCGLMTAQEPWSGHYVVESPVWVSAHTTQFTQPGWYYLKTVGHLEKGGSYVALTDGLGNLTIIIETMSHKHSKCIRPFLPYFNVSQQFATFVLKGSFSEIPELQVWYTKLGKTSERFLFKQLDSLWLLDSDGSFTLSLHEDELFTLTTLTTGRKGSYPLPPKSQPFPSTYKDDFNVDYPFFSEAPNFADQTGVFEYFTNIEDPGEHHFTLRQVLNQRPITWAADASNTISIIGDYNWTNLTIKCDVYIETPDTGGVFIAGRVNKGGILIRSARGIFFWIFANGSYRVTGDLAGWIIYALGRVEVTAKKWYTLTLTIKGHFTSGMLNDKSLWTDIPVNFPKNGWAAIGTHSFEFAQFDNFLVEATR
# Experiment: A Novel Cell-Based Assay to Identify Small Molecules for B -Galactocerebrosidase; further: nearly all actives have a fitted effect of over 65% in size; on activation: 0% is about no effect
# Conditions: 145M-Twi-hGALC-G270D cells (Twitcher mouse brain line with human GALC G270D), HMU-beta-Gal fluorescence, 48 h; series mostly up to 57.5 µM; activation: at the top concentration
# Method in brief: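 Mutant human GALC (G270D), stably expressed in a Twitcher mouse brain cell line lacking endogenous GALC, is measured in live-treated cells via 6-hexadecanoylamino-4-methylumbelliferyl-β-galactoside hydrolysis (0.1 mM final, pH 5.2) with fluorescent detection.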
# Potency means the concentration at half of the fitted maximal effect.
SMILES,activation,Potency
CCN1c2ccccc2-c2nc(SCC(=O)Nc3cc(OC)cc(OC)c3)ncc2S1(=O)=O,inactive: -2.64%,
CC(C)n1c(SCC(=O)c2ccc(F)cc2)nc2c(sc3ccccc32)c1=O,inactive: -9.05%,
Cc1cccc2nc(Cn3c(=O)n(-c4ccccc4)c(=O)c4c5c(sc43)CCC5)cc(=O)n12,inactive: -20.6%,
COc1ccc(CCNC(=O)c2c(Nc3ccccc3C)sc(C(=O)c3ccccc3)c2N)cc1OC,inactive: -13.7%,
COc1ccccc1OCCCn1c(C2CC(=O)N(c3ccc(F)cc3)C2)nc2ccccc21 (stereo unspecified),inactive: -1.42%,
COc1cccc(CNC(=O)c2cc3cc(C)ccc3n2C)c1,inactive: -11.7%,
Cc1ccccc1OCC(=O)Nc1nnc(SCc2cc(=O)n3cccc(C)c3n2)s1,inactive: -6.68%,
Cc1ccc(O)c(NC(=O)C2=CC(c3cccs3)=NS(=O)(=O)N2C)c1,inactive: -15.8%,
COc1cccc(CN2CCCN(Cc3ccc(F)cc3)S2(=O)=O)c1,inactive: -6.03%,
CCCOc1ccc(C(=O)Nc2cc(-c3nc4ccccc4[nH]3)ccc2C)cc1,inactive: -16.6%,
CCN(CC)c1ccc(NC(=O)Cn2cc3c(n2)CCCC3)c(C)c1,inactive: -15.6%,
CCc1ccc(NC(=O)CSc2nc3c([nH]c4ccccc43)c(=O)n2C)cc1,inactive: -4.6%,
Cn1c(=O)n(C)c2cc(N3CCCCC3)c(NC(=O)Nc3ccc(Br)cc3)cc21,inactive: -3.72%,
Cc1ccc(-n2nc(C(=O)N3CCN(c4cc(C)ccc4C)CC3)c3c4ccccc4n(C)c3c2=O)cc1,inactive: -17.1%,
Cc1c(NC(=O)C(C)(C)C)cccc1-c1nc2ccccc2s1,inactive: -13.7%,
Cn1cc(S(=O)(=O)N2CCc3ccccc32)cc1C(=O)Nc1ccc(C(F)(F)F)cc1,inactive: 2.04%,
CCOc1ccccc1NC(=O)Cn1c(=O)n(-c2ccc(Cl)cc2)c(=O)c2oc3ccccc3c21,inactive: -6.38%,
COc1ccc(N2CCN(C(CNC(=O)c3c(F)cccc3F)c3ccc4c(c3)OCO4)CC2)cc1 (stereo unspecified),inactive: -12.2%,
CCOC(=O)c1cc2c(=O)n3ccccc3nc2n(CC2CCCO2)c1=NC(=O)c1ccccc1OCC (stereo unspecified),inactive: -5.67%,
Cc1ccc(CNC(=O)C2CCCN(c3nn4cc(-c5ccc(C)cc5)nc4s3)C2)cc1 (stereo unspecified),inactive: -8.98%,
Cc1ccc(-n2c(=O)c3ccc(C(=O)NCc4ccccc4Cl)cc3n(Cc3cccc(F)c3)c2=O)cc1,inactive: -8.84%,

SMILES,activation,Potency
COCCn1c(SCc2ccccc2F)nc2c([nH]c3ccccc32)c1=O,inactive: -27.3%,
CCOc1ccc(-n2cc(-c3ccccc3)c3c(NCc4ccccc4)ncnc32)cc1,inactive: -5.4%,
COC(=O)Cc1c(C)c2ccc3c(c2oc1=O)CN(Cc1ccc(Cl)cc1)CO3,,active: 25.1 µM
CCCSc1ncc(Cl)c(C(=O)Nc2ccc(S(=O)(=O)N3CCCCC3C)cc2)n1 (stereo unspecified),inactive: -11.6%,
COc1ccc(NC(=O)CCn2cnnn2)cc1,inactive: -6.94%,
COc1cccc(NC(=O)C2CC(=O)N(c3ccc(Br)cc3)C2)c1 (stereo unspecified),inactive: -6.27%,
Cc1ccc(NS(=O)(=O)c2cn(C)c(C)n2)c(Br)c1,inactive: -15.5%,
COc1ccc(CNC(=O)C2CCN(S(=O)(=O)N3CCC(C)CC3)CC2)c(OC)c1,inactive: -12.5%,
COc1cc(CN(C(=O)c2ccc(C)cc2)C2CCS(=O)(=O)C2)cc(OC)c1OC (stereo unspecified),inactive: -11.5%,
Cc1cccc(CNC(=O)c2ccc(Cn3c(SCc4cccc(F)c4)nc4cccnc43)cc2)c1,inactive: 6.61%,
CCC1CN(CC(=O)NCc2cccc(Br)c2)c2ccccc2S1 (stereo unspecified),inactive: -6.14%,
COc1ccc(-c2ccc(CCC(=O)O)n2-c2ccccc2C(F)(F)F)cc1,inactive: -2.31%,
Cc1ccc(S(=O)(=O)c2cn(CC(=O)Nc3ccc4c(c3)OCO4)c3ccc(C)cc3c2=O)cc1,inactive: -12.7%,
COc1ccc(-c2nc3ccccc3o2)cc1NC(=O)c1cc([N+](=O)[O-])ccc1N1CCOCC1,inactive: -10.2%,
Cc1ccccc1OCc1nnc(SCc2cc(=O)c3cc(F)ccc3[nH]2)n1C,inactive: -2.43%,
Cc1ccc2c(c1)c1c(c(=O)n(Cc3ccccc3)c(=O)n1Cc1cccc(F)c1)n2C,inactive: -7.43%,
N#C/C(=C\c1cccc(F)c1)c1nc(-c2cc3ccccc3oc2=O)cs1,inactive: -11.4%,
CCOC(=O)CN(Cc1ccccc1)C(C(=O)NC1CCCCC1)c1ccccc1 (stereo unspecified),inactive: -8.25%,
CCc1ccc(N2CC(C)Cn3c2nc2c3c(=O)n(CC(=O)O)c(=O)n2C)cc1 (stereo unspecified),inactive: -13.9%,
CC(Oc1ccccc1)C(=O)Nc1ccccc1C(=O)OCc1cc(=O)n2nc(C3CC3)sc2n1 (stereo unspecified),inactive: -12.3%,
CCc1nnc(SCC(=O)Nc2ccc(OC)c(OC)c2)c2cc3occc3n12,inactive: -7.59%,

SMILES,activation,Potency
Cc1c(Nc2ncccc2C(=O)O)cccc1C(F)(F)F,inactive: -14.3%,
CCOc1ccc(-c2cc(C)n3nc(C(=O)Nc4ccc(C)c(C)c4)cc3n2)cc1,inactive: -12.1%,
CC[C@H](c1ccc(O)cc1)[C@@H](CC)c1ccc(O)cc1,inactive: -20.4%,
COC(=O)Cc1c(C)nc2nc(NCc3ccc(Br)cc3)[nH]n2c1=O,inactive: -15.5%,
Cc1ccc(NC(=O)CCC(=O)N2CCSc3ccccc32)cc1,inactive: -6.63%,
COc1cccc(C(=O)Nc2cccc(OCc3cc(=O)n4cccc(C)c4n3)c2)c1,inactive: 21.1%,
CCCCNC(=O)CC1N=C2c3ccccc3N=C(SCC(=O)NCc3ccccc3Cl)N2C1=O (stereo unspecified),inactive: -11.6%,
Cc1cnc2c(c1SCC(=O)NCc1ccccc1Cl)c(=O)n(C)c(=O)n2C,inactive: -2.99%,
CC(C)(Oc1ccc(Cl)cc1)C(=O)Nc1nnc2n1CCS2,inactive: -0.251%,
Cc1ccn2c(Nc3ccccc3C)c(-c3cccnc3)nc2c1,inactive: -5.55%,
CCOc1ccc(NC(=O)Cn2cc(C(=O)c3ccccc3)c(=O)c3cc4c(cc32)OCCO4)cc1,inactive: -28.3%,
CCc1ccccc1Nc1cc(C(=O)NCCCN(C)C2CCCCC2)c2ccccc2n1,inactive: 2.1%,
O=C(COc1ccccc1)Nc1nnc(SCc2cc(=O)c3ccccc3[nH]2)s1,inactive: 1.09%,
Clc1ccc(-c2noc(-c3cccnc3N3CCN(c4ccccc4)CC3)n2)cc1,inactive: 15%,
Cc1ccc(C)c(N2CCN(C(=O)c3nn(C)c4c3CS(=O)(=O)c3ccccc3-4)CC2)c1,inactive: -14.7%,
Cc1ccc(C2c3[nH]c4ccccc4c3CCN2C(=O)CCc2ccccc2)cc1 (stereo unspecified),inactive: 0.162%,
CCN(C(=O)CSc1nc2ccccc2n1CC(=O)N1CCCC(C)C1)c1ccccc1 (stereo unspecified),inactive: 1.58%,
O=C(CC(NCc1cccnc1)C(=O)O)Nc1ccc(O)cc1 (stereo unspecified),inactive: 9.67%,
CCOc1ccc(CCNC(=O)C2CCN(Cc3nc(-c4ccccc4C)oc3C)CC2)cc1OCC,inactive: -1.53%,
